This is an account of results in publication PMC4336329 (PLoS ONE, 2015).

Each structure is given as a SMILES string. Out of some 310,000 compounds screened, about 14,000 (4.5%) showed an effect of 50% or more. Effects have a minus sign here. Some of the results follow.
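Note: peak tail current of the secondary pulse compared with the same well before compound.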

In this experiment the target is human ether-à-go-go-related gene (hERG) potassium channel (human, UniProt Q12809). In words: primary screen, population patch clamp on CHO cells stably expressing hERG.
Sequence of human ether-à-go-go-related gene (hERG) potassium channel (Q12809 whole entry, looked up): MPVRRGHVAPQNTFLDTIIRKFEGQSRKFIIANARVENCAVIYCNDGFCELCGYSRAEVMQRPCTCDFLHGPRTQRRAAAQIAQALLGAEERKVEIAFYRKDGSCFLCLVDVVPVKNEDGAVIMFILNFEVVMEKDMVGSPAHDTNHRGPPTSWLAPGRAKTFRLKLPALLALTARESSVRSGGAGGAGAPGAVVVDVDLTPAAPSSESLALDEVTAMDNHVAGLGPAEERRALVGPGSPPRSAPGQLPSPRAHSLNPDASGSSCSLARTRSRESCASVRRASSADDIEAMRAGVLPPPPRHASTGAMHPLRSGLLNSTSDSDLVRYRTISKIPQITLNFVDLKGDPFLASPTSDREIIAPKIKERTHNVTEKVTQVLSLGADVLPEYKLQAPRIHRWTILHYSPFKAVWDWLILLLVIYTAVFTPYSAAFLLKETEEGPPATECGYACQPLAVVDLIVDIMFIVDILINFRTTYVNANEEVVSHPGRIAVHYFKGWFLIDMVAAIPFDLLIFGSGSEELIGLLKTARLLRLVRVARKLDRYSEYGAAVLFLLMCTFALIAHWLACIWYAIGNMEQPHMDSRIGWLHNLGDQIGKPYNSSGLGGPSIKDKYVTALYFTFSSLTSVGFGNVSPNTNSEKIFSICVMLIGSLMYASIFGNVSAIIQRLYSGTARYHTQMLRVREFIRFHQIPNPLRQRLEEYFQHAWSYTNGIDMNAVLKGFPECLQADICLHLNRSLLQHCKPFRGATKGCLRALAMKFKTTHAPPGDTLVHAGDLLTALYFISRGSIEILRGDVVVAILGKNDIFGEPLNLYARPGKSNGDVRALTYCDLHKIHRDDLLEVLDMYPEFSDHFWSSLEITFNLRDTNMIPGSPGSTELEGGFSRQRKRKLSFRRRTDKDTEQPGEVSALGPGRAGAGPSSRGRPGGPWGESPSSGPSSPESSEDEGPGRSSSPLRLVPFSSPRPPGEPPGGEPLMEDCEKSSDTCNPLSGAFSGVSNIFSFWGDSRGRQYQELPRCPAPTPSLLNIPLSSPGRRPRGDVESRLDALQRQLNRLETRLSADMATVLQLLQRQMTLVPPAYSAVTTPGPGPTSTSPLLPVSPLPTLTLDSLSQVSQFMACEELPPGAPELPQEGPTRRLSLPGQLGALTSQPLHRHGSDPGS
As for `Cc1ccc(N2CC(C(=O)NCCN3CCOCC3)CC2=O)cc1` (centres unmarked), the “hERG current change (%, negative = inhibition) at 10uM” value is 8.92%.

In the case of `CCN1CCN(CCCN(Cc2ccco2)C(=S)Nc2ccc(C)c(Cl)c2)CC1`, the “hERG current change (%, negative = inhibition) at 10uM” value is recorded as -64.8%. As for `COCCn1c(Cc2ccccc2)nnc1SCC(=O)Nc1ccccc1`, the “hERG current change (%, negative = inhibition) at 10uM” value is 5.83%. Regarding `CCN1CCCC1CNC(=O)c1cc([N+](=O)[O-])c(N(C)C)cc1OC` (centres unmarked), the “hERG current change (%, negative = inhibition) at 10uM” value is -1.67%. Turning to `O=C1OCCC1N1C(=O)c2ccccc2S1(=O)=O` (centres unmarked), the “hERG current change (%, negative = inhibition) at 10uM” value is -12%.

On to `CSc1cc(-c2ccccc2)[nH]c(=O)c1C#N`, for which the “hERG current change (%, negative = inhibition) at 10uM” value was determined as 6.16%. Consider `O=C(NC(=S)Nc1ccc(O)cc1)C1CCCC1`, for which the “hERG current change (%, negative = inhibition) at 10uM” value is given as 16.5%. Turning to `CCOC(=O)c1c(NC(=O)CSc2nnc(Cc3ccccc3)o2)sc(C)c1C`, the “hERG current change (%, negative = inhibition) at 10uM” value is on record as 13.8%. Turning to `O=C(COC(=O)/C=C/c1ccc(S(=O)(=O)N2CCOCC2)cc1)NCc1ccccc1`, the “hERG current change (%, negative = inhibition) at 10uM” value was -8.44%.

Turning to `COc1ccc(CNS(=O)(=O)c2cc(Br)cc3c2N(C(C)=O)C(C)C3)cc1` (centres unmarked), the “hERG current change (%, negative = inhibition) at 10uM” value is -40.9%. In the case of `CC(=O)c1ccc(NC(=O)c2ccc3nc(-c4ccco4)c(-c4ccco4)nc3c2)cc1`, the “hERG current change (%, negative = inhibition) at 10uM” value is -0.276%. The figure for `O=C(Nc1ccc(-c2csc(Nc3ccc(Cl)cc3)n2)cc1)c1cccc(C(F)(F)F)c1` is 17.4%. To `Cn1ccnc1SCC(=O)Nc1sccc1C#N` belongs 0.227%; to `O=[N+]([O-])c1cccc(-c2noc(COc3ccccc3)n2)c1`, 21%; to `O=C(c1ccc2c(=O)n(Cc3ccccc3)c(=S)[nH]c2c1)N1CCCC1`, 20.4%. The figure for `O=C(Cn1ncc(Cl)c(Cl)c1=O)NC1CCCCC1` is -41.2%; for `CCOc1ccc(NS(=O)(=O)c2cc(C(=O)N3CCN(C(C)=O)CC3)ccc2Cl)cc1` it is 12.6%; for `Cn1c(=O)n(C)c2cc(CN3C(=O)OC(C)(C)C3(C)O)ccc21` (centres unmarked) it is 5.82%. For the compound `S=C(Nc1cccnc1)NC1CC2CCC1C2` (centres unmarked), the “hERG current change (%, negative = inhibition) at 10uM” value stood at 17.9%. The figure for `CCCCOc1ccc(C(=O)Nc2cc(C)c(OCC(=O)N3CCOCC3)c(C)c2)cc1` is -24.8%. `Cc1ccc(CNC(=O)c2ccc(CS(=O)Cc3ccccc3Cl)o2)cc1` (centres unmarked): the “hERG current change (%, negative = inhibition) at 10uM” value is listed as -8.39%. `CCOc1ccc(NC(=O)c2cnc3scc(C)n3c2=O)cc1`: the “hERG current change (%, negative = inhibition) at 10uM” value was -4.9%. To `c1ccc(C[C@H]2CNCCN2CC2(c3ccccc3)CC2)cc1` belongs -14.9%; to `Cc1ccc(NC(=O)Nc2ccc3c(c2)OCO3)c(OC(F)F)c1`, -6.73%; to `C=CCn1c(SCC(=O)Nc2nc(C)cs2)nnc1C(NC(=O)c1ccccc1)C(C)C` (centres unmarked), -9.2%.

`OC(c1cc(-c2ccc(C(F)(F)F)cc2)nc(C(F)(F)F)c1)C1CCCCN1` (centres unmarked): the “hERG current change (%, negative = inhibition) at 10uM” value is reported as 11.8%. To `COc1cccc(CNC(=O)CCC2CCCN(Cc3ccc4c(c3)CCO4)C2)c1` (centres unmarked) belongs -33.6%; to `CCOc1ccccc1NC(=O)Cc1cccs1`, 3.18%; to `Cc1ccc(Sc2ncccc2C(=O)NCc2cc([N+](=O)[O-])ccc2O)cc1C`, 9.22%. Regarding `COc1ccc(C(=O)Nc2ccc(C(=O)OCC(=O)c3ccccc3)cc2)cc1`, the “hERG current change (%, negative = inhibition) at 10uM” value is given as 3.97%.

As to `CC1CCN(C(=O)C2CCN(S(=O)(=O)c3cc(Cl)ccc3Cl)CC2)CC1`, the “hERG current change (%, negative = inhibition) at 10uM” value is -38%. To `O=C(Nc1ccc(F)cc1)c1cc(S(=O)(=O)N2CCCCC2)ccc1F` belongs -4.19%.

In the case of `COc1ccccc1CNC(=O)c1csc2c1CCCC2`, the “hERG current change (%, negative = inhibition) at 10uM” value was 2.46%. To `CC(=O)c1cccc(NC(=O)COC(=O)c2ccc3c(c2)OCCO3)c1` belongs -1.54%. The figure for `Cc1ccccc1OCCOCCN1CCCCCC1.O=C(O)C(=O)O` is -29.3%. The figure for `Cc1c(C(=O)N2CCCCC2)c(S(=O)(=O)NCCc2ccccc2)c(C)n1C` is 10.5%; for `COC(=O)c1nnn(Cc2ccccc2)c1N` it is 14.4%. In the case of `Nc1cc(=O)[nH]c(SCc2nnnn2-c2ccc(Cl)cc2)n1`, the “hERG current change (%, negative = inhibition) at 10uM” value was 4.04%.

As to `CCC(CC)c1nnc(NC(=O)c2cccc(S(=O)(=O)N3CCc4ccccc43)c2)s1`, the “hERG current change (%, negative = inhibition) at 10uM” value turned out to be 8.7%. To `C=CCOc1ccc2ccccc2c1CNn1cn[nH]c1=S` belongs -8.17%; to `COc1cccc(C(=O)N2CCN(c3ccccn3)CC2)c1`, 1.21%.

Turning to `Cc1cc(C)cc(-n2ncc3c2CCCC3NC(=O)c2csnn2)c1` (centres unmarked), the “hERG current change (%, negative = inhibition) at 10uM” value is -110%.

For `CC(=O)Nc1ccc2c(c1)nc(CCN1CCN(c3ccccn3)CC1)n2C`, the “hERG current change (%, negative = inhibition) at 10uM” value was 18.6%. The figure for `COc1ccc(-n2c(C)cc(C(=O)COC(=O)c3cc(OC)c(OC)cc3NC(=O)c3cccs3)c2C)cc1` is 14.4%. As for `COc1ccccc1NC(=O)Nc1nnc(CC(=O)Nc2ccccc2)s1`, the “hERG current change (%, negative = inhibition) at 10uM” value was -8.21%. The figure for `O/N=C/c1c[nH]c2ccccc12` is 5.61%.

As for `Cc1cccc(-c2noc(CN(C(=O)c3ccc4c(c3)OCO4)C(C)C)n2)c1`, the “hERG current change (%, negative = inhibition) at 10uM” value is reported as -14.5%. Turning to `Cc1cccc(C(=O)NC(=S)NNC(=O)c2ccccc2Cl)c1`, the “hERG current change (%, negative = inhibition) at 10uM” value was 29.8%. To `COc1ccc(-n2c(COc3ccccc3)n[nH]c2=S)cc1` belongs 19.6%; to `CCCCN1CC[C@H]2C=CC[C@@H](C(=O)Nc3ccccc3)[C@H]2C1=O`, -13.1%; to `CN(C)CCCN=Cc1c(O)n(Cc2ccccc2)c(=O)c2ccccc12`, -64.5%. As to `COc1cc2ncnc(NCc3ccc(F)cc3)c2cc1OC`, the “hERG current change (%, negative = inhibition) at 10uM” value is listed as -52.5%. Turning to `O=C(Nc1cccc(F)c1)C1CCN(C(=O)Cc2ccccc2)CC1`, the “hERG current change (%, negative = inhibition) at 10uM” value is -7.55%. The figure for `O=C(COC(=O)Cc1ccccc1[N+](=O)[O-])NCc1ccccc1Cl` is 3.36%; for `O=C1N=c2ccccc2=C1c1sc(=S)n(Cc2ccccc2Cl)c1O` it is 5.81%; for `Cn1c(=O)n(C)c2cc(NC(=O)CSc3nc4ccccc4c(=O)[nH]3)ccc21` it is 15.2%.
